Laboratory results: PubChem BioAssay AID686978 (National Center for Advancing Translational Sciences (NCATS), 2013)
About 64,000 (15%) of roughly 420,000 compounds were called active. Inconclusive results, whose numbers are uncertain, are shown with a selection of clear calls. The call rests on the fitted dose curve; in most records, active means well fitted inhibition curve with a large enough effect; inconclusive means small, poorly fitted or top-dose-only effect; inactive means flat fitted curve, though single readings scatter. Potencies of inconclusive entries are left out as doubtful fits.

assay: qHTS for Inhibitors of human tyrosyl-DNA phosphodiesterase 1 (TDP1): qHTS in cells in absence of CPT; conditions: DT40 Tdp1-/- hTDP1 cells, no CPT, ATP luminescence, 48 h; activity change, negative = growth inhibition: at 46.2 µM (top of the series) unless noted; further: nearly all actives have a fitted effect of over 55% in size
In short: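 Chicken DT40 Tdp1-/- cells complemented with human TDP1, screened without camptothecin (DMSO vehicle only), 400 cells/well. Compounds pin-transferred, cells incubated at 37 °C for at least 48 hr. Growth read as ATP-dependent luminescence (CellTiter-Glo, 30 min at RT).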
On the % scale 0 is the no-effect control and ±100 the full control effect; potency means the concentration at half of the fitted maximal effect; tags describe the fitted curve by direction and shape.

Question: Which Potency does the source give for Cc1ccc(C(=O)NCCc2ccc(F)cc2)s1 here?
Answer: The Potency was inconclusive [inhibitor, partial curve].

Question: With Cc1cc(NC(=O)CS(=O)(=O)c2cn(Cc3ccccc3Cl)c3ccccc23)no1 as the compound, how does the Potency read?
Answer: The Potency was inconclusive [inhibitor, single point].

Question: For CCOC(=O)C1CCN(S(=O)(=O)c2ccc(Br)c(OCC)c2)CC1, which activity change, negative = growth inhibition is on record?
Answer: The activity change, negative = growth inhibition was inconclusive: -32.3% [inhibitor].

Question: For COc1cc(-c2nnc(SCC(=O)/C(C#N)=C(\C)N)o2)cc(OC)c1OC, which Potency is on record?
Answer: Its Potency is inconclusive [inhibitor, partial curve].

Question: With COC(=O)c1ccc(NC(=O)Cc2coc3cc(C)ccc23)cc1 as the compound, how does the Potency read?
Answer: Its Potency is inconclusive [inhibitor, single point].

Question: For CCCCn1nnnc1C(c1cc2ccccc2o1)N(C)CCc1ccccc1 (stereo not given), which Potency is on record?
Answer: The Potency was active: 20.6 µM.

Question: Which Potency does the source give for C=CCn1c(O)c(N=NC(=O)CNC(=O)/C=C/c2ccc(OC)cc2)c2ccccc21 here?
Answer: Its Potency is inconclusive [inhibitor, single point].

Question: With Cc1cc(C)cc(-n2c(SCC(=O)Nc3nnc(C)s3)nc3c([nH]c4ccccc43)c2=O)c1 as the compound, how does the Potency read?
Answer: The Potency was inconclusive [inhibitor, single point].

Question: For CN(C)CCC(O)c1ccccc1 (stereo not given), which Potency is on record?
Answer: Its Potency is “inactive”.

Question: For COc1cc(OC)c(C2=NOC(C(=O)N3CCc4ccccc4C3)C2)cc1Cl (stereo not given), which Potency is on record?
Answer: The Potency was inconclusive [inhibitor, single point].

Question: With Cn1c(C(=O)N2CCN(Cc3ccc4c(c3)OCO4)CC2)cc2c(=O)n(C)c3ccccc3c21 as the compound, how does the Potency read?
Answer: The Potency was inconclusive [inhibitor, single point].

Question: For COc1ccc(/C=C/c2nc(C#N)c(NC3CCCCC3)o2)cc1OC, which Potency is on record?
Answer: The Potency was active: 20.6 µM.

Question: With COc1cc(OC)cc(C(=O)OCc2ccc([N+](=O)[O-])cc2)c1 as the compound, how does the Potency read?
Answer: The Potency was inconclusive [inhibitor, partial curve].

Question: With Cc1oc2c(O)c(O)ccc2c(=O)c1-c1ccccc1 as the compound, how does the Potency read?
Answer: The Potency was inconclusive [inhibitor, single point].

Question: For COc1ccc(Cl)cc1C(=O)NNC(=O)COC(=O)CCN=C1NS(=O)(=O)c2ccccc21, which Potency is on record?
Answer: The Potency was “inactive”.

Question: With CCN(CC)c1ccc(C(=O)NNC(=O)c2cccn2C)cc1 as the compound, how does the Potency read?
Answer: The Potency was “inactive”.

Question: Which Potency does the source give for O=C(CN(Cc1ccco1)C(=O)c1cccc(F)c1)Nc1ccccc1C(F)(F)F here?
Answer: Its Potency is “inactive”.

Question: For Nc1c(Br)c(=O)[nH]c(=O)n1-c1ccc(F)cc1, which Potency is on record?
Answer: Its Potency is active: 23.1 µM.

Question: For COc1cc(C(C[N+](=O)[O-])c2c(N)n(C)c(=O)n(C)c2=O)ccc1O (stereo not given), which Potency is on record?
Answer: The Potency was active: 6.51 µM.

Question: Which Potency does the source give for O=S(=O)(c1ccc(Oc2ccc(Cl)cc2)c(S(=O)(=O)N2CCCCC2)c1)N1CCCCC1 here?
Answer: Its Potency is active: 14.6 µM.

Question: For Cc1c(C)n(C)c2ccc(C(=O)N3CCN(c4ccccn4)CC3)cc12, which Potency is on record?
Answer: Its Potency is inconclusive [inhibitor, single point].

Question: Which Potency does the source give for COC(=O)c1ccc(CSc2nc3cc(Cl)ccc3o2)cc1 here?
Answer: Its Potency is “inactive”.

Question: Which Potency does the source give for N#C/C(=C\c1ccc2c(c1)OCCO2)C(=O)NC1CCCCC1 here?
Answer: The Potency was inconclusive [inhibitor, single point].

Question: For CC(CN1CCCCC1)OC(=O)/C=C/c1ccccc1 (stereo not given), which Potency is on record?
Answer: Its Potency is “inactive”.

Question: For Cc1ccc(-c2cc(=O)c3cc(F)ccc3[nH]2)cc1, which Potency is on record?
Answer: The Potency was inconclusive [inhibitor, single point].

Question: Which Potency does the source give for COC(=O)c1sc(SC)c(S(=O)(=O)C(C)C)c1N/N=C(\C#N)C(=O)c1ccccc1 here?
Answer: Its Potency is inconclusive [inhibitor, single point].

Question: For Cc1ccc(CNC(=O)CCc2c(C)nn(-c3ccc(N4CCCC4)nn3)c2C)cc1, which Potency is on record?
Answer: The Potency was inconclusive [inhibitor, single point].

Question: With CCOc1ccc(S(=O)(=O)N(CC(=O)Nc2cc(C)on2)Cc2ccccc2Cl)cc1 as the compound, how does the Potency read?
Answer: The Potency was inconclusive [inhibitor, single point].

Question: With CN1CCN(C(=O)c2ccc(Oc3ccc([N+](=O)[O-])cc3)cc2)CC1 as the compound, how does the Potency read?
Answer: The Potency was inconclusive [inhibitor, partial curve].

Question: Which Potency does the source give for CCc1cccc(C)c1Nc1c(-c2cccc(O)c2)nc2cnccn12 here?
Answer: Its Potency is inconclusive [inhibitor, single point].

Question: With CCOC(=O)C1=C(CN2CCN(c3ccccc3F)CC2)NC(=O)NC1c1ccc(OC)cc1 (stereo not given) as the compound, how does the Potency read?
Answer: Its Potency is inconclusive [inhibitor, single point].

Question: Which Potency does the source give for CCNC(=S)Nc1ccc(Cl)c(C(F)(F)F)c1 here?
Answer: Its Potency is active: 23.1 µM.

Question: With Cc1ccc(NC(=O)c2cccc3cccnc23)cc1 as the compound, how does the Potency read?
Answer: The Potency was active: 18.4 µM.

Question: Which Potency does the source give for CC(C)COc1cccc(-c2cc(C(=O)Nc3ccon3)c3ccccc3n2)c1 here?
Answer: The Potency was active: 10.3 µM.

Question: Which activity change, negative = growth inhibition does the source give for CCOC(=O)C1CCN(S(=O)(=O)c2ccc(Cl)cc2OC)CC1 here?
Answer: Its activity change, negative = growth inhibition is inconclusive: -36.5% [inhibitor].

Question: For CCn1c(C)cc(C(=O)COC(=O)c2cccnc2SC)c1C, which Potency is on record?
Answer: Its Potency is inconclusive [inhibitor, partial curve, poor fit].

Question: With CCCCOc1ccc(C(=O)NCC(=O)N2CC(C)CC(C)C2)cc1 (stereo not given) as the compound, how does the Potency read?
Answer: The Potency was inconclusive [inhibitor, single point].

Question: For CC(C)(C)OC(=O)N(CCc1ccccc1)Cc1cccc(OCc2cccc(NC(=O)/C=C/c3ccccc3)c2)c1, which Potency is on record?
Answer: Its Potency is inconclusive [inhibitor, single point].

Question: For CCN(CC)CCNC(=O)c1ccc(NC(=O)Cc2cccc3ccccc23)cc1, which Potency is on record?
Answer: The Potency was “inactive”.

Question: Which Potency does the source give for O=S(=O)(Nc1nc2cc3c(cc2nc1Cl)OCCO3)c1ccccc1 here?
Answer: The Potency was inconclusive [inhibitor, partial curve, poor fit].

Question: Which Potency does the source give for COc1ccc(-c2coc3cc(OC)ccc3c2=O)cc1 here?
Answer: Its Potency is inconclusive [inhibitor, single point].

Question: Which Potency does the source give for S=C(Nc1ccc(Oc2ccc(NC(=S)NC3CCCCC3)cc2)cc1)NC1CCCCC1 here?
Answer: The Potency was inconclusive [inhibitor, full curve].

Question: For CCCNC(=O)CCCN1C(=O)c2ccccc2Sc2ncccc21, which Potency is on record?
Answer: Its Potency is “inactive”.

Question: For CC(CCc1ccccc1)NC(=O)COC(=O)c1cc(NS(=O)(=O)c2ccc(Cl)c([N+](=O)[O-])c2)ccc1O (stereo not given), which Potency is on record?
Answer: The Potency was inconclusive [inhibitor, single point].

Question: With O=C(CCc1ccccc1)NNC(=O)Nc1cccc(Cl)c1 as the compound, how does the Potency read?
Answer: The Potency was “inactive”.

Question: With COc1ccccc1CNC(=O)Cn1c(-c2cccs2)cc2cc(F)ccc21 as the compound, how does the Potency read?
Answer: Its Potency is inconclusive [inhibitor, single point].

Question: Which Potency does the source give for COCCNC(=O)NC(=O)CN1CCN(C(c2ccccc2)c2ccccc2)CC1 here?
Answer: The Potency was inconclusive [inhibitor, partial curve].

Question: With CCCc1ccc2c(N)c(C#N)sc2n1 as the compound, how does the Potency read?
Answer: Its Potency is inconclusive [inhibitor, single point].

Question: Which Potency does the source give for CCOc1ccccc1NC(=O)Cn1nc2c3cc(F)ccc3n(Cc3cccc(C)c3)cc-2c1=O here?
Answer: The Potency was inconclusive [inhibitor, single point].

Question: With CCCCCC(=O)c1c(C)[nH]c(C(=O)OCC)c1C as the compound, how does the Potency read?
Answer: The Potency was inconclusive [inhibitor, partial curve, poor fit].

Question: For O=C(COC(=O)COc1cccc(Br)c1)NCc1ccc2c(c1)OCO2, which Potency is on record?
Answer: The Potency was “inactive”.

Question: Which Potency does the source give for C=C(C)C1(O)OC(=O)C=C1OC (stereo not given) here?
Answer: The Potency was active: 16.4 µM.

Question: Which Potency does the source give for COc1ccc(NC(=O)CCCn2cnc3ccccc3c2=O)c(OC)c1 here?
Answer: Its Potency is “inactive”.

Question: Which Potency does the source give for Cn1c(-c2ccc(-c3ccccc3)cc2)c[nH]c1=S here?
Answer: The Potency was inconclusive [inhibitor, single point].

Question: For Cc1cc(C)cc(Oc2nc(-c3ccccc3)cc(C)c2S(C)(=O)=O)c1, which Potency is on record?
Answer: Its Potency is inconclusive [inhibitor, single point].

Question: For Cc1cc(C)cc(N(CCC(=O)Nc2nnc(C3CC3)s2)S(=O)(=O)c2ccc(Cl)cc2)c1, which Potency is on record?
Answer: The Potency was inconclusive [inhibitor, partial curve, poor fit].

Question: With CCC(=O)Nc1cc(C(=O)OC(C(=O)c2ccc(C)c(C)c2)c2ccccc2)ccc1C (stereo not given) as the compound, how does the Potency read?
Answer: Its Potency is inconclusive [inhibitor, single point].

Question: Which Potency does the source give for COC(=O)C1CCN(c2ccc(C(N)=O)cc2[N+](=O)[O-])CC1 here?
Answer: The Potency was “inactive”.

Question: For CCCOc1ccc(C(=O)Nc2ccc(N3CCN(C(=O)c4ccco4)CC3)cc2)cc1, which Potency is on record?
Answer: Its Potency is inconclusive [inhibitor, single point].

Question: Which Potency does the source give for CC(C)c1ccc(NC(=O)c2cc(S(=O)(=O)N3CCCCC3)c[nH]2)cc1 here?
Answer: Its Potency is “inactive”.

Question: For Cc1ccc(S(=O)C(c2ccccc2)c2ccccc2)cc1 (stereo not given), which Potency is on record?
Answer: Its Potency is inconclusive [inhibitor, single point].

Question: With COCCN(CCOC)S(=O)(=O)c1ccc(C(=O)Nc2sc3c(c2C(N)=O)CCCCC3)cc1 as the compound, how does the Potency read?
Answer: The Potency was inconclusive [inhibitor, single point].

Question: For O=C(c1ccncc1)N1c2ccccc2Sc2ccccc21, which Potency is on record?
Answer: The Potency was active: 9.2 µM.

Question: Which Potency does the source give for O=C(O)COc1ccccc1/C=N/NC(=O)COc1ccc(-c2ccccc2)cc1 here?
Answer: The Potency was active: 29.1 µM.

Question: Which Potency does the source give for O=C(CNc1cccc(S(=O)(=O)N2CCCC2)c1)Nc1cccc(F)c1 here?
Answer: The Potency was inconclusive [inhibitor, single point].

Question: Which Potency does the source give for O=C(N=Nc1c(O)[nH]c2ccc([N+](=O)[O-])cc12)c1ccccc1[N+](=O)[O-] here?
Answer: The Potency was inconclusive [inhibitor, partial curve].

Question: Which Potency does the source give for O=C(NCc1ccccc1Cl)c1csc2c1CCCCC2 here?
Answer: The Potency was “inactive”.

Question: Which Potency does the source give for CC1CCCN(CCOc2ccc3ccccc3c2Br)C1 (stereo not given) here?
Answer: Its Potency is inconclusive [inhibitor, single point].

Question: Which Potency does the source give for Cc1nc2ccccn2c(=O)c1NC(=O)c1ccccc1Cl here?
Answer: The Potency was “inactive”.

Question: For CCOC(=O)[C@H]1[C@H]2COc3cc(OC)ccc3[C@@H]2N2C(=O)N(c3ccc(Br)cc3)C(=O)[C@@]12C, which Potency is on record?
Answer: Its Potency is active: 18.4 µM.
